This is one part of the list. At the low end of the ranking the order means little.
target: T1, GST-Rok-C97-191 (UniProt O34857); test: protein binding microarray; conditions: Rok is a gene silencer of Bacillus subtilis; high values mean tight binding; most listed sequences are background and not binding sites; double strand, one strand shown;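 further: rank score from −0.5 (least bound) to 0.5 (best bound)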
T1 sequence: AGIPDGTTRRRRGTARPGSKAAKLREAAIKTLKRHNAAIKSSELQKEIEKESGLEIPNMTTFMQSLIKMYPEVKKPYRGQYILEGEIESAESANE

Row | Sequence | binding signal
1 | ACCTATGC | -0.0256 E-score
2 | GTACTGAA | 0.0812 E-score
3 | ATTCAGAG | -0.129 E-score
4 | GCCTTGAA | -0.174 E-score
5 | AGTTGCTA | 0.269 E-score
6 | AGGGTCTG | -0.226 E-score
7 | CGCGGAAA | 0.119 E-score
8 | AAGTTGAT | -0.0272 E-score
9 | CCCTTAGA | -0.122 E-score
10 | CCCCCAGG | -0.374 E-score
11 | GTACCTAC | 0.349 E-score
12 | CAAATTAG | 0.044 E-score
13 | CGATTACA | -0.117 E-score
14 | CGGCGAGC | -0.218 E-score
15 | CTAACGAA | 0.0767 E-score
16 | AATTCAGT | 0.0493 E-score
17 | CTAGGCTC | -0.179 E-score
18 | GTACAGAA | 0.0429 E-score
19 | AGGTGCCA | -0.101 E-score
20 | CTCAAACA | -0.00373 E-score
21 | CCCGAGAC | -0.261 E-score
22 | ATTAGCAC | 0.0299 E-score

Row | Sequence | binding signal
23 | CGCCGTAC | -0.135 E-score
24 | CCAAATGG | -0.144 E-score
25 | GCTTTCCC | -0.232 E-score
26 | CCAATTTA | 0.177 E-score
27 | GCAGCCCA | -0.184 E-score
28 | CAAAATCG | 0.0988 E-score
29 | AAAGTTTC | 0.189 E-score
30 | TCGACCCA | -0.056 E-score
31 | ACGCTACC | 0.216 E-score
32 | GGAGCACA | -0.139 E-score
33 | ACAGTCTA | 0.152 E-score
34 | CGCCCGAC | -0.305 E-score
35 | AGCTATTC | -0.0326 E-score
36 | GCGGGAAC | -0.127 E-score
37 | CTATAATA | 0.34 E-score
38 | AAGATCTC | 0.0462 E-score
39 | GTTAGGTA | 0.106 E-score
40 | CGGAACCA | -0.116 E-score
41 | TAGTTAGA | 0.319 E-score
42 | AGCAGGCC | -0.353 E-score
43 | GGCTATTA | 0.0955 E-score
44 | CCACCCGA | -0.304 E-score

Row | Sequence | binding signal
45 | AACTTCCG | 0.0503 E-score
46 | CCTCATCC | -0.253 E-score
47 | GGAAGCCC | -0.23 E-score
48 | GGCCGGGA | -0.259 E-score
49 | AAGAGGGC | -0.165 E-score
50 | ATCTCCAT | 0.18 E-score
51 | CGTGCCTC | -0.223 E-score
52 | GCGGACAC | -0.271 E-score
53 | GTTGCCTA | 0.0227 E-score
54 | TAAAATAA | 0.281 E-score
55 | GATGATGC | -0.12 E-score
56 | ACCCGGCG | -0.0876 E-score
57 | CCCAAAAG | -0.236 E-score
58 | ACAACCCT | 0.0815 E-score
59 | AATGTGAA | 0.253 E-score
60 | AGAAGTTA | 0.194 E-score
61 | GCTGCACA | 0.00247 E-score
62 | AGGTTCGA | -0.202 E-score
63 | CGCCCAGC | -0.358 E-score
64 | TGGAGACA | -0.139 E-score
65 | CATTTAGC | 0.0299 E-score
66 | CAAACTCC | -0.063 E-score

Row | Sequence | binding signal
67 | GATTCCAA | -0.00566 E-score
68 | ATTAACCA | 0.134 E-score
69 | ATACGTAT | 0.213 E-score
70 | CCTAACAA | 0.0113 E-score
71 | CAGATTCA | 0.0984 E-score
72 | AAACCGCT | -0.0448 E-score
73 | AATGCGGG | -0.0708 E-score
74 | CTGTCACC | -0.164 E-score
75 | CGACCAGC | -0.129 E-score
76 | ACCTTCAT | -0.0551 E-score
77 | TCTGCTAA | -0.0564 E-score
78 | AGGGTGCC | -0.195 E-score
79 | CGCAGCAA | -0.241 E-score
80 | CGCCGGGA | -0.322 E-score
81 | CTCAGGAC | -0.165 E-score
82 | GGGAAATA | 0.229 E-score
83 | ATCGAAGC | -0.00284 E-score
84 | GCGTACCC | -0.00429 E-score
85 | ACCTACCT | 0.154 E-score
86 | ACGGGCAA | -0.249 E-score

Source: paper PMC6212790
